Results taken from PubChem BioAssay AID493208 (National Center for Advancing Translational Sciences (NCATS), 2011).
Hit rate of the full screen: of about 44,000 compounds, about 340 (0.77%) were called active. Inconclusive results (about 5%) are left out. The call rests on the fitted dose curve; in most records, active means well fitted inhibition curve with a large enough effect; inconclusive means small, poorly fitted or top-dose-only effect; inactive means flat fitted curve, though single readings scatter. The list shows a part of the results.

Experiment: Acumen qHTS Assay for Inhibitors of the mTORC1 Signaling Pathway in MEF (Tsc2-/-, p53-/-) Cells: Sytravon;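 further: plate controls were DMSO for no effect and rapamycin for full effect; nearly all actives have a fitted effect of over 50% in size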
Conditions: phospho-rpS6 immunofluorescence/PI, 24 h; series mostly up to 38.3 µM; activity change, negative = inhibition: at the top concentration
Procedure, shortened: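 Plate MEFs (Tsc2-/-, p53-/-, empty vector) in DMEM/10% FBS; after 24 h add compound, incubate 24 h at 37 degree Celsius; fix in PFA/TX-100, block, stain phospho-rpS6 and 10 uM PI; scan at 488 nm; report % positive cells.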

Activity change, negative = inhibition, inactive:
CCCCN(C)CCNC(=O)c1cc(-c2cccnc2)nc2ccc(S(=O)(=O)N3CCC(C)CC3)cc12 0.0245%, O=C(COc1ccccc1F)Nc1ccc(C(=O)OCc2cc(=O)n3nc(C4CC4)sc3n2)cc1 0%, CN(Cc1ccccc1)c1nc(-c2ccc(F)cc2)cc(C(F)(F)F)n1 -16%, CCc1ccc(-n2c(C)nnc2SCc2nc(-c3ccc(OC)cc3)no2)cc1 4.98%, Cc1ccc(NC(=O)CCSCCc2ccccn2)cc1 2.32%, Cc1ccc(-c2cc3ncc(C(=O)c4cc([N+](=O)[O-])ccc4O)cn3n2)cc1 -4.43%, O=C(Nc1ccc(Cl)cc1Cl)c1cc(S(=O)(=O)N2CCN(c3ccccc3F)CC2)ccc1F 5.92%, COc1ccc(Br)cc1CNC(=O)CCCn1c(=O)c2cccn2c2ccccc21 5.27%, CCC(C(=O)Nc1cccc(-c2cn3cccnc3n2)c1)c1ccccc1 (stereo not given) -0.151%, CCC(Oc1ccccc1F)C(=O)Nc1c(C(=O)c2ccccc2)oc2ccccc12 (stereo not given) -6.93%, CC(C)(C)OC(=O)N1CCC(c2c(C(=O)NCc3ccc4c(c3)OCO4)cnn2-c2ccc(F)cc2F)CC1 2.19%, O=C(Nc1ccc(Cl)cc1)C1CCN(c2nc3ccccc3n3cccc23)CC1 -12.1%, COc1cccc(-c2nnc3n(Cc4ccc(F)cc4)c(=O)c4ccccc4n23)c1 -0.809%, CN(C)c1ccc(C(CNS(=O)(=O)c2ccc(Cl)cc2)N2CCCC2)cc1 (stereo not given) 0%, COc1ccc(CCNC(=O)NCc2noc3ccccc23)c(OC)c1 -29.5%, CC1=C(C(=O)Nc2ccc(C)cc2C)C(c2ccccc2C)n2ncnc2N1 (stereo not given) -1.84%, Cc1cccc(-c2nc3c(C#N)c[nH]n3c2NC2CCCCC2)c1 -8.98%, COc1cc(C(=O)NCC(c2cccnc2)N2CCN(c3ccc(F)cc3)CC2)cc(OC)c1OC (stereo not given) 2.77%, Cc1nn(-c2ccc3nncn3n2)c(C)c1CCC(=O)Nc1ccc(OC(F)(F)F)cc1 -0.758%, COc1cc(NC(=O)c2noc3c2CCc2ccccc2-3)cc(OC)c1OC -24.2%, Cc1ccccc1CNC(=O)c1ccc(-n2c(C)cc3c2CCCC3)cc1 -16.7%, COc1ccccc1CNC(=O)C1CCN(Cc2nc(-c3ccc(OC)c(OC)c3)oc2C)CC1 -14.7%, Cc1ccc(OCCn2c(-c3ccc(Cl)cc3)nc3ccccc3c2=O)c(C)c1 3.83%, CCCN(CCC)C(=O)Cn1c(=O)n(Cc2ccc(C(=O)NCCc3ccc(OC)c(OC)c3)cc2)c(=O)c2ccccc21 -11.3%, CCCN(C(=O)c1cc2c(Cl)nc3ccccc3c2s1)c1cccc(C)c1 -0.897%, COCCNC(=O)c1ccc(Cn2c(SCC(=O)NC(C)C)nc3ccccc3c2=O)cc1 -13.4%, CCOc1cc(CNc2ccc(O)cc2)cc(Br)c1OCc1ccccc1 -7.82%, CCOc1ccccc1N(C)C(=O)c1nn(-c2ccc(C)cc2)c(=O)c2c1c1ccccc1n2C -4.79%, COc1ccc(CNC(=O)c2ccc3c(c2)N(Cc2ccccc2)C(=O)c2ccccc2S3(=O)=O)cc1 -0.949%, COc1ccc(-c2cc3nc(C4CCN(C(=O)OC(C)(C)C)CC4)c(C(=O)Nc4cc(Cl)cc(Cl)c4)cn3n2)cc1 5.27%, COc1ccc(-n2c(SCC(=O)N3CCC(C)CC3)nc3c([nH]c4ccccc43)c2=O)cc1 -2.66%, CC1=C(C(=O)Nc2ccc(C)cc2C)C(c2sccc2C)n2ncnc2N1 (stereo not given) -1.45%, COc1ccc(OC)c(NC(=O)c2csnn2)c1 -2.06%, COCCCNC(=O)c1cc(-c2cccnc2)nc2ccccc12 0%, CCOc1ccccc1-c1nnc(SCc2ccc(Cl)cc2)o1 -4.84%, CCOc1cccc(C2c3c(oc4ccccc4c3=O)C(=O)N2c2nc(C)c(C(=O)OC)s2)c1 (stereo not given) 5.4%, O=C(Nc1nnc(S(=O)(=O)N2CCCc3ccccc32)s1)c1ccccc1Br -0.543%, Cc1ccc2occ(CC(=O)Nc3nnc(C(C)C)s3)c2c1 -2.16%, Cc1ccc(-n2ncc(C(=O)Nc3ccc(C)c(F)c3)c2C2CCN(C(=O)OC(C)(C)C)CC2)cc1C 2.52%, CCOc1cc(C2c3c(oc4ccccc4c3=O)C(=O)N2Cc2ccc3c(c2)OCO3)ccc1O (stereo not given) -5.28%, Cc1nc2sc(C(=O)NCc3ccc(Cl)cc3)c(NC(=O)c3ccccc3)c2c(C)c1C -7.67%, Cc1ccc(CNC(=O)CCCCn2c(=O)c3ccccc3n(Cc3ccc(Cl)cc3)c2=O)cc1 -2.26%, CCC(C(=O)OCc1cc(=O)n2nc(CCOC)sc2n1)c1ccccc1 (stereo not given) -9.48%, Cc1ccccc1NC(=O)c1nc(-c2ccncc2)no1 4.86%, COc1cccc(N2CCN(c3nc4ccc(C(=O)c5ccccc5)cc4n4c(C)nnc34)CC2)c1 -6.56%, Cc1ccc(NC(=O)Cn2c(CCC(=O)O)ccc2-c2cccs2)cc1 -0.655%, COC(=O)C(C)Sc1nc2c([nH]c3ccccc32)c(=O)n1-c1ccc(OC)cc1 (stereo not given) 0.169%, Cc1ccc(NC(=O)NCc2cccn2Cc2ccccc2)cc1F -22.9%, Cc1cc(C)c2c(=O)cc(C(=O)Nc3ccc(S(=O)(=O)Nc4nc(C)cc(C)n4)cc3)oc2c1 2.33%, O=C(Nc1ccc2nc(SCC(=O)N3CCCC3)sc2c1)c1ccc(F)cc1 -6.38%, COc1ccc(CNC(=O)CCCn2c(SCC(N)=O)nc3cc4c(cc3c2=O)OCO4)cc1 -0.25%, Cc1cc(Nc2cccc(Cl)c2C)n2nc(Cc3ccccc3)nc2n1 -20.1%, CCOc1ccccc1NC(=O)Cn1c(=O)n(Cc2ccccc2)c(=O)c2c(C)c(C(=O)N(C)C)sc21 -0.321%, CCN(CC)C(=O)CSc1nc2cc3c(cc2c(=O)n1Cc1ccc(C(=O)NCCc2ccc(OC)c(OC)c2)cc1)OCO3 3.28%, COc1cc(Cl)c(C)cc1NC(=O)c1cn(CC(C)C)c(=O)c2cc(OC)c(OC)cc12 -4.9%, CC(C)OCCCNC(=O)CCCn1c(SCC(=O)c2ccc(Br)cc2)nc2c(sc3ccccc32)c1=O 1.46%, CC(NC(=O)c1ccccc1)c1nc2ccccc2n1Cc1ccc(Cl)cc1 (stereo not given) -7.88%, COc1ccc(CNC(=O)c2cnn3c(C)c(Cc4ccc(F)cc4)c(C)nc23)cc1 5.67%, Cc1cc(C)c(NC(=O)Cn2c(=O)n(CCCCC(=O)NCc3ccccc3Cl)c(=O)c3ccccc32)c(C)c1 1.66%, COc1cc(CN(CC2CCCO2)C(=O)c2ccccc2F)cc(OC)c1OC (stereo not given) -1.46%, Cc1ccc(Cl)cc1NC(=O)Cn1nc2c(cc1=O)CC(C)CC2 (stereo not given) 0.141%, CCOc1ccc(NC(=O)CN2C(=O)COc3ccc(S(=O)(=O)Nc4ccccc4)cc32)cc1 0%, Cc1ccc(OCCSc2nc3ccccc3n2CC(=O)N2CCOCC2)c(C)c1 1.93%, COc1ccc(C(=O)Nc2ccc3nc4n(c(=O)c3c2)CCCCC4)cc1OC 2.36%, CCC(=O)N1CCc2cc(Br)cc(S(=O)(=O)N3CCC(C(=O)NC(C)(C)C)CC3)c21 -0.636%, O=C(NNc1ncnc2c1cnn2-c1ccccc1)c1cccc(Cl)c1 -8.88%, CC(C)Cn1c(=O)c2ccccc2n2c(-c3cccc(Cl)c3)nnc12 -3.86%, COc1ccc(C(=O)NCc2nnnn2-c2ccc(C)c(C)c2)cc1 6.04%, COc1ccc(Cl)c(Cn2c(NCCN)nc3c2c(=O)n(C)c(=O)n3C)c1 0.485%, CCOc1ccc(NC(=O)N2CCOc3ccccc32)cc1 -4.35%, N#Cc1ccc(-c2cccs2)nc1SCc1ccc(Cl)cc1Cl -2.27%, CCc1ccccc1NC(=O)CSc1nnc(-c2nonc2NC(C)=O)n1C -9.28%, Cc1ccc(Cl)cc1Nc1nc2ccccc2n2c(C)nnc12 0.236%, CCCOc1ccccc1Cn1c(=O)sc2ccccc21 -18.5%, CCCCc1nn2c(=O)cc(COC(=O)c3ccccc3NC(=O)C(C)(C)C)nc2s1 10.3%, Cc1cc(NS(=O)(=O)c2ccc(NC(=O)COc3ccc(Br)cc3C)cc2)no1 -3.77%, Cc1[nH]c(=O)[nH]c(=O)c1C1N2CC3(C(C)C)CN1CC(C(C)C)(C2)C3=O (stereo not given) -0.983%, CCOC(=O)c1ccc(NC(=O)CN2C(=O)c3cccnc3Oc3ccc(Cl)cc32)cc1 -0.265%, Cc1ccc(N2CCn3c2nc2c3c(=O)n(CCc3ccccc3)c(=O)n2C)cc1C -5.04%, Cc1ccc(CNC(=O)Cn2nc(C)n3cccc3c2=O)cc1 -8.87%, Cc1ccc(-n2ncc(C(=O)N3CCN(c4cccc(C)c4)C(C)C3)c2C2CCN(C(=O)OC(C)(C)C)CC2)cc1 (stereo not given) -6.46%, CCOc1ccc(N2CC(c3nc4ccccc4n3Cc3cccc(Cl)c3)CC2=O)cc1 (stereo not given) -0.927%, Cc1nn(CCCC(=O)NCc2ccc(F)cc2)c(=O)c2c1sc1ccccc12 -0.381%, Cc1c2cnn(CC(=O)N3CCN(c4ccc(F)cc4)CC3)c(=O)c2c(C)n1Cc1ccc(F)cc1 2.63%, O=C(NCc1ccc(Cl)cc1)c1cc(S(=O)(=O)N2CCCCC2)c[nH]1 -1.81%, CCOc1ccc2nc(NC(=O)c3cc(=O)c4ccc(C)cc4o3)sc2c1 -1.51%, CCN1CCSc2ccc(C(=O)NC(C)c3ccccc3)cc21 (stereo not given) -6.07%, CCOC(=O)c1cc(-c2ccccc2)n(-c2cccc(C(=O)Nc3ccc(F)c(F)c3)c2)c1C -6.48%, COc1ccccc1CNC(=O)CCn1c(=O)c2ccccc2n(CC(=O)Nc2cccc(Cl)c2)c1=O -25.5%, Cc1c(NC(=O)c2cc(-c3ccc(Cl)c(Cl)c3)on2)c(=O)n(-c2ccccc2)n1C -0.744%, CCOc1ccc(-c2cc(NC(=O)Nc3cccc(C(C)=O)c3)c(C(=O)OC)s2)cc1 2.01%, CCOc1ccc(S(=O)(=O)NCC(c2ccco2)S(=O)(=O)c2cccs2)cc1 (stereo not given) 0.697%, CCOC(=O)c1ccc(NC(=O)CCCc2nc(-c3ccccc3Cl)no2)cc1 2.33%, COc1ccc(OC)c(NC(=O)C2CCCN(S(=O)(=O)c3c(C)nn(C)c3C)C2)c1 (stereo not given) -6.56%, Cc1ccc(NC(=O)c2cnn3c(C(F)F)cc(-c4ccccc4)nc23)c(C)c1 -0.23%
